Assay results published in ChEMBL document CHEMBL4888484, “Replenishing the malaria drug discovery pipeline: Screening and hit evaluation of the MMV Hit Generation Library 1 (HGL1) against asexual blood stage Plasmodium falciparum ,using a nano luciferase reporter read-out” (2022).
The whole screen tested about 150,000 compounds, of which about 540 (0.36%) showed an effect of 50% or more. The list shows a part of the results.

The compounds below were run on Plasmodium falciparum (assay: Primary screen in NF54 nanoGlo assay, in single point, at 2uM, 72h; a lower Z score goes with more inhibition). Settings: timepoint 72 hour.
Format: functional, Erythrocyte

SMILES	% Inhibition	Z score
COCCN1CC[C@H](CN(C)S(=O)(=O)Cc2ccc(Cl)cc2)C1	-6%	1.12
N#Cc1ccccc1S(=O)(=O)N1CCC(c2nc(O)c3nnn(Cc4cccc(Cl)c4)c3n2)CC1	-18%	2.31
Nc1nc(CNC(=O)[C@@H]2CC=CCC2)cs1	4%	-0.7
CCc1cnc(C)nc1N1CCN[C@H](C(=O)N2CCCC2)C1	-9%	1.72
Cc1nc([C@H]2CCOC2)cc(N2CCN(CCOc3ccccc3)CC2)n1	-7%	0.95
C[C@]1(C(=O)N2CCNCc3ccccc32)CCOC1	-5%	0.47
CCO[C@@H](CC)c1noc(C2(c3ccccc3)CC2)n1	-2%	0.46
Cc1cc(C(N)=O)c(N(C)CC[C@H](C)N2CCCC2)nc1C	-4%	0.88
CN(CCc1cnccn1)C1CCC(C#N)C1 (centres undefined)	0%	-0.04
O=S(=O)(c1ccccc1)N(c1ccc(F)cc1)C1CCN(Cc2ccc(C(F)(F)F)cc2)CC1	-16%	1.51
C[C@H]1COc2ccc(C(=O)NCc3nnc(C4CC4)s3)cc21	-6%	0.74
Cc1nc(C(=O)N2CCC(NC(=O)CC3CCCC3)CC2)c(-c2ccccc2)o1	-3%	0.53
NC(=NOCc1nnc(-c2ccc(Cl)cc2Cl)o1)C1CCCC1	-7%	0.99
Cc1ccc(NC(=O)Cn2c(C)cc(=O)c3sccc32)cc1Cl	35%	-4.5
COCc1c(C(=O)N2CC[C@H]3C(=O)N(Cc4ccc(F)cc4)CCN3CC2)noc1C	-4%	0.76
CCCN(CCC)C(=O)[C@H](C)n1cccn1	-1%	0.09
CC(C)(C)c1nnc(C(=O)NC[C@H]2CCCS(=O)(=O)C2)s1	1%	-0.11
CCc1noc(C)c1-c1noc(Cn2nc(C)cc2C)n1	-4%	0.67
O=C(NC(C1CC1)C1CC1)c1coc(COc2cccc(F)c2)n1	-6%	1.01
CC(C)NC(=O)CN(C)[C@@H](C(N)=O)c1cccc(Br)c1	-14%	1.71
COc1ccc([C@@H](NS(=O)(=O)N2CCOCC2)C2CC(O)C2)cn1 (some centres undefined)	1%	-0.15
CCN(CC)CCNC(=O)[C@H](C)N1C(=O)COc2ccc(C(=O)COc3ccc(C)cc3C)cc21	4%	-0.56

SMILES	% Inhibition	Z score
CCc1ccc(-c2nccn2-c2cccc(NC(C)=O)c2)nc1	-5%	0.47
Cc1ccccc1-c1cc2c(N3CCN(C(=O)c4ccco4)CC3)nccn2n1	3%	-0.44
CC(C)Cc1noc(CNC(=O)CN2CCC[C@H](O)C2)n1	-14%	1.45
O=C(CC1CCN(C(=O)c2ccc3oc(-c4ccccc4)nc3c2)CC1)N1CCCCCC1	-16%	1.91
OCC#Cc1ccc(-c2nccn2-c2ccc3ncsc3c2)s1	-2%	0.3
CCCN1CCC[C@H](C(=O)NOC(C)C)C1	-3%	0.49
CCCn1cc(CCNC(=O)CC)c2cccnc21	-17%	1.93
COc1ccc(S(=O)(=O)CCN2C(=O)CN(C)C2=O)c(Cl)c1	-4%	0.6
CC1CC(c2ccccc2F)N(C(=O)C2CC23CCNCC3)C1 (centres undefined)	-18%	2.11
CN(CC1=CCCOC1)Cc1nnc(C2CC2)n1C	-7%	1.45
COc1ccc(CN2C(=O)CO[C@H]3CN(Cc4ccccc4OC)C[C@H]32)cc1	-11%	2.28
COC(=O)c1ccc(NC(=O)N[C@@H](C)CC#N)cc1Cl	-9%	1.51
CC(c1ccc(Cl)cc1)C(C)N(C)C(=O)CCN (centres undefined)	-3%	0.45
O=C(NCC[C@H]1CCCCO1)c1cccc(OC(F)F)c1	-6%	0.75
CC#CCN1C(=O)C(=O)N(C2CCCCC2)C1=O	-4%	0.6
COCCC1(C(=O)N[C@H]2CCN(c3nc(C)cc(=O)[nH]3)C2)CCCC1	-5%	0.79
CCC(NCc1nnc(C)s1)C1CCOC1 (centres undefined)	-8%	0.75
NC(=O)CCNC(=O)C1CC12CCc1cc(Br)ccc12 (centres undefined)	-6%	0.56
Cn1c(O)cc(=O)c2cccc(OC[C@H](O)C(C)(C)O)c21	-6%	0.58
Cc1cc(C)c(CNC(=O)c2ccccc2OCc2csc(C)n2)c(=O)[nH]1	-7%	0.64
COCCN1C(=O)CC[C@]2(C(=O)Nc3ccc4c(c3)OCCO4)CCCC=C12	-8%	0.8
CCCc1ncc(C(=O)Nc2cnns2)s1	-12%	2.17

SMILES	% Inhibition	Z score
O=C(Cc1nc(Cc2ccc(F)cc2)n[nH]1)NCc1cccc(Cl)c1	-6%	0.73
Cc1cnc(CN2CC(c3ccccc3Cl)OCC2C)cn1 (centres undefined)	-5%	1.01
COc1ccc(-c2nnc(-c3cc(OC)c4c(c3)OCO4)[nH]2)cc1O	3%	-0.38
Cc1nc(C)c(CC(=O)N(C)CCn2cccn2)s1	3%	-0.44
COc1cc2c(cc1OC)CN(C(=O)C[C@H]1CCCO1)CC2	2%	-0.26
CC1(C)COCCN1CC1=Nc2ccccc2S(=O)(=O)N1	-3%	0.41
CC(C)n1ccnc1CN1CCN2CCCC[C@H]2C1	-14%	1.39
O=S(=O)(c1ccc(N2CCC(c3nc4ccccc4s3)CC2)cc1)C(F)F	4%	-0.57
CC(C)(C)C(=O)NCCN1CCOCC1	-9%	1.12
COC[C@@H]1C[C@@H](OC)CN1c1nc(N)c2cnn(C)c2n1	-2%	0.24
O=C1COc2c(F)cc(NC(=O)N3CCCCCC3)cc2N1	-15%	1.8
Cc1ccc(CNC(=O)Cc2cn(C)c3ncccc23)cc1	-16%	1.9
Cn1nc(-c2ccc(C(N)=O)c(Cl)c2)nc1N1CCCCC1	5%	-0.77
CCCC[C@H]1CN(c2cccc(-c3ccccc3)c2)C(=O)CN1C(=O)CNC	-5%	0.78
O=C(O)C1(NCc2cc(-c3ccc(Cl)cc3)no2)CCCC1	11%	-1.27
Cc1ccc([C@H](CNC(=O)c2ccco2)N2CCCCC2)cc1	-6%	1.15
O=C(CN1CCCCC1=O)N1CCC[C@H](O)CC1	11%	-1.17
O=C(CCc1conc1-c1ccc(F)cc1)NCc1ccc(F)cc1	-4%	0.64
N#Cc1ccc(F)cc1CN1CCC[C@H](c2nncn2C2CC2)C1	-16%	1.41
CC(C)(C)COC(=O)N1CCC2(CCC(=O)N(CCc3ccncc3)C2)CC1	4%	-0.56
O=C([C@@H]1CCCO1)N1CCC(n2cc(CN3CCCCC3)nn2)CC1	-18%	1.59
O=C(c1ccc(Br)cc1)N1CCC[C@H]1c1nc2ccccc2s1	9%	-1.16

SMILES	% Inhibition	Z score
Cc1nn(C)c(C)c1S(=O)(=O)N1CCCN(c2ccc(C#N)cc2)CC1	3%	-0.5
Cn1nc2c(c1C(=O)N1C[C@@H]3[C@H](C1)[C@H]3NC(=O)CCC1CCC1)CCC2	-9%	1.37
c1cncc(COc2ccc(CN[C@H]3CCc4ncnn4C3)cc2)c1	1%	-0.17
CC#CCn1ccnc1-c1cccs1	-15%	2.38
Cc1cc(NC(=O)OC(C)(C)C)sc1C	-2%	0.26
CC(C)Cc1nnc(C(C)NC2CCN(S(C)(=O)=O)CC2C)o1 (centres undefined)	-1%	0.1
O=C(COCC1CCCC1)NCC(=O)N1Cc2ccccc2C1	2%	-0.32
CCn1c(=O)c(C(=O)NCCOC)nn(-c2ccc(Cl)cc2)c1=O	6%	-0.72
CC(C)[C@H]1CN(c2nccc(N)n2)C[C@@H]1NC(=O)CCS(C)(=O)=O	0%	-0.07
O=C([C@@H]1NCCc2[nH]cnc21)N1CCN(C/C=C/c2ccccc2)CC1	2%	-0.46
Cn1nc(C(=O)NC(c2ccccc2)c2ccccc2)c2ccccc2c1=O	-2%	0.29
Cc1cccc(NC(=O)Nc2ccc(NC(=O)c3ccco3)cc2)c1	3%	-0.42
Cc1ccccc1C(=O)N1CCc2cc(S(=O)(=O)N3CCOCC3)ccc21	-1%	0.08
Cc1cccc(NC(=O)Cn2c(=O)n(C(C)C)c(=O)c3nscc32)c1	5%	-0.61
O=C1CCc2cc(F)cc(NC(=O)NC[C@@H](c3ccco3)N3CCCC3)c2N1	-3%	0.57
CCn1c([C@H]2CCCNC2)nn(Cc2cc(F)ccc2C)c1=O	-3%	0.54
O=C(C1=NN(c2ccccc2)C(=O)CC1)N1CCCc2ccccc21	-7%	0.85
CCOc1ccc2c(c1)[C@@H](NS(=O)(=O)Cc1ccccc1C)CCO2	-5%	0.74
O=C(CCNS(=O)(=O)c1ccc(Cl)cc1)N1CCCCCC1	-20%	3.43
Cc1nn(C)c(C)c1CN(CCO)Cc1cc(O)c2cccc(F)c2n1	-15%	1.9
C[C@H]1CCCCN1c1nnc(C(=O)NCCc2ccccc2)c2ccccc12	-9%	1.04
